According to the supplement of paper PMC11417369:
The list shows a part of the results.

What follows are sequences tested on PF3D7_0420300 AP2 domain 1 (GST-tagged) (assay: gcPBM binding intensity (ln(normalized median fluorescence intensity)); higher = stronger DNA binding).
Outline: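 The binding buffer was 1× PBS containing 1% milk, 0.2 mg/ml BSA, 0.5% salmon testes DNA and 0.03% Triton X-100. In it, GST-tagged P. falciparum DNA-binding domains expressed in E. coli were applied for 1 h to an Agilent 4 × 180k array of primer-extended double-stranded 36-bp intergenic genomic probes plus negative controls. Binding intensity, read with Alexa488 anti-GST antibody and a 488 nm scan, is the highest Masliner-normalised natural-log median intensity across replicate spots of either probe orientation.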

| Sequence | gcPBM binding intensity (ln) |
| --- | --- |
| AGTTTGTCAATCAACACACACCTATTTATTATATAT [CACACA_site6030] | 9.59 |
| ATATTTCGTCTAAAAAGTACACAACAATAAAAAGTA [XGTACX_site6668] | 9.41 |
| AAAAAACACAGACACACACACATATACATACATACA [CACACA_site2666] | 10.2 |
| TTTTTTAAATAATATTGTACAAAAAATGTATAAATA [XGTACX_site3010] | 8.98 |
| TTAGGTTTATACACTACACACATTATTCATAAAAAA [CACACA_site871] | 9.43 |
| TATATATATTTAAGGTGTACATAAATAACAAAATAT [XGTACX_site2641] | 9.42 |
| AAGTGTATACAGAAGAGTACAAACAATTTTTTTCTT [XGTACX_site7387] | 9.29 |
| AAAATTATAAATCTTGCACACAAAAAAAATAATAAA [CACACA_site8771] | 9.44 |
| TTTTCATTTATGTATATATTTATTTTGATTTAATGT [GTGCAC_negctrl_site607] | 9.29 |
| AATTATTTTATGTGAGGTACACCACACATGAAGGGG [XGTACX_site8450] | 9.46 |
| TAAATATATTCAATCACACACATTCGTTTTTTTTTT [CACACA_site234] | 9.6 |
| TATTGTTATGTCGTTATTAACTTTCTTTAATTAATT [CACACA_negctrl_site174] | 9.47 |
| AAATATTCATAGTATACACACATTTATATATAATCA [CACACA_site771] | 9.45 |
| TGAAAGTTCAATAATTGTACATGTGGAAATTCATAC [XGTACX_site1378] | 9.24 |
| ATAAAAAAATAAATTAGTACATATATATATATATAT [XGTACX_site6971] | 9.13 |
| TTACGCATACTAATTACACACAAATAGATGAATATA [CACACA_site1338] | 9.43 |
| ATTTTTTTTTCTTTCGCACACGTGAAAGAATTTCTA [CACACA_site2052] | 9.11 |
| TTAAATTAAAACAAATGTACAAAGTGCATATTTTTT [XGTACX_site8143] | 8.98 |
| ATAATTTAATACTAGTGTACAGAAAAAAAAAAAAAA [XGTACX_site6756] | 9.09 |

| Sequence | gcPBM binding intensity (ln) |
| --- | --- |
| GTTGAACATAGATGCACACACATAAAATAAAAAAAA [CACACA_site5353] | 9.6 |
| ACATATATATATAAATATATATATATATAAATATAT [CACACA_negctrl_site895] | 8.96 |
| TGTTTAAATTTTTTGTTTTTTTTTTTATAAAGCAAA [TGCATGCA_negctrl_site313] | 8.91 |
| TATATTTTTTTAAAAAGTACTTTGTATATATATATA [XGTACX_site1300] | 9.05 |
| TGAAGGTCAGTTCACAGTACCCAGTAACTCTACGGA [XGTACX_site2554] | 9.06 |
| TTGTTGTTATTTAAAACACACATCAATCATCTTAAC [CACACA_site1142] | 9.22 |
| TAATATATATTATTATGTACATATATTGATTCCTTG [XGTACX_site6830] | 9.19 |
| TATTTATTAATATGTACACACATCAACCATATTAAC [CACACA_site7001] | 9.59 |
| TTCTTATATATATACACACACAAAATATCTACAATG [CACACA_site736] | 9.79 |
| CCAAAATACATTAAACGTACATGTCCTAATAAGATA [XGTACX_site21] | 9.15 |
| TTGTTTTTATAAATATTATTACAATGAAAAAAAAAA [TGCATGCA_negctrl_site185] | 8.92 |
| AAAAAAAAAAAAAAAAGTACGTATCAAAGCATCAAA [XGTACX_site880] | 9.42 |
| AATCTGATCTTTTAAAGTACACAAAAAAAAAAAAAA [XGTACX_site115] | 8.74 |
| AGGTTATAAATAAATACACACATACAAAAATATGAC [CACACA_site4773] | 9.86 |
| CATATATATATATGTACACACATTAATAAAAAAAAA [CACACA_site3230] | 9.46 |
| GTTTAACTGTTTTATACACACAATGTATACAATAAA [CACACA_site2959] | 9.48 |
| AATGAACACCTAAAATGTACGTACAAATATATTTTA [XGTACX_site7067] | 9.31 |
| AATGAATAAATAAACACACACACATATATAAATATG [CACACA_site6160] | 9.97 |
| AAAACAAACAGACACACACACATATATATATATATA [CACACA_site3655] | 9.79 |

| Sequence | gcPBM binding intensity (ln) |
| --- | --- |
| ATGTTTAATTTTTTTTTGTCCCTATAGAAGTGTCAA [CACACA_negctrl_site1103] | 8.98 |
| TTTGAGTGCACATACACACAGACATACATTTAAATA [CACACA_site3403] | 9.55 |
| ATAACCTAATAATACACACACATGAATATATAGAAT [CACACA_site963] | 10.1 |
| TTTAAAATTTTTTTTTTTTTTTTTTTTTTTTTTTAT [TGCATGCA_negctrl_site213] | 8.65 |
| ATATAAATATGTTCTGCACACAAATAAGTGTTTGAA [CACACA_site9291] | 9.33 |
| TGATTCTGTCATGGTGCACACCAGAACCATTATAAA [CACACA_site1965] | 8.98 |
| TCTTAAAATCGGAAATGAAATAAAGTTTACAATATG [TGCATGCA_negctrl_site553] | 9.07 |
| ATATATAAATATATATGTACACACATATACATGTTG [XGTACX_site6653] | 9.59 |
| AATTATTCTATATATTGTACATGTTTGTTTTTTTTT [XGTACX_site3130] | 9.7 |
| TGTTTAATCACATGTTTGCACTTTCCTTTTGTAAAT [GTGCAC_site9893] | 9.55 |
| TATGGGGAACTATAATGTACGTATTCCTCATATATA [XGTACX_site338] | 9.25 |
| GATGATACACAGGTGTTGCACTTAAATGCAGTTCTT [GTGCAC_site9627] | 9.43 |
| ATTAAAATAGAAAAAAAAAAAAAAAAAAAAAAAAAA [CACACA_negctrl_site1117] | 8.39 |
| TTTTCAAAATGTTGTACACACAAAAAAAAAAAAAAA [CACACA_site1550] | 9.11 |
| TAATCATTTTTAAATTGTACAATTTATATAATAAGT [XGTACX_site6081] | 9.09 |
| TTGATATACTATGACACATGCAAATAAAACATTATA [TGCATGCA_site535] | 9.12 |
| TTGTATTGTATATGCACACATAGAACACTTTTTTTT [CACACA_site4133] | 9.46 |
| TAAATTTTGTTTAGCACACACACATACATACATACA [CACACA_site3155] | 9.84 |
